From publication PMC6919601, “Identification of Plasmodium dipeptidyl aminopeptidase allosteric inhibitors by high throughput screening” (PLoS ONE, 2019)
“And” between values parts separate entries of the source, which are not always exact repeats. Equal entries are not always repeated. Hit rate of the full screen: of about 110,000 compounds, about 230 (0.21%) showed an effect of 50% or more. This is one part of the list.

target: DPAP1 (Plasmodium falciparum, UniProt Q8IIJ9); experiment: primary screen, percent inhibition; read by cleavage of a fluorogenic dipeptide substrate; higher = more effect of the substance; parameters: species or system P. falciparum D10 trophozoite lysates; single well
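Note: 30 min substrate incubation versus DMSO and 10 µM JCP410 controls.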

Sequence of DPAP1 (Q8IIJ9 whole entry, looked up): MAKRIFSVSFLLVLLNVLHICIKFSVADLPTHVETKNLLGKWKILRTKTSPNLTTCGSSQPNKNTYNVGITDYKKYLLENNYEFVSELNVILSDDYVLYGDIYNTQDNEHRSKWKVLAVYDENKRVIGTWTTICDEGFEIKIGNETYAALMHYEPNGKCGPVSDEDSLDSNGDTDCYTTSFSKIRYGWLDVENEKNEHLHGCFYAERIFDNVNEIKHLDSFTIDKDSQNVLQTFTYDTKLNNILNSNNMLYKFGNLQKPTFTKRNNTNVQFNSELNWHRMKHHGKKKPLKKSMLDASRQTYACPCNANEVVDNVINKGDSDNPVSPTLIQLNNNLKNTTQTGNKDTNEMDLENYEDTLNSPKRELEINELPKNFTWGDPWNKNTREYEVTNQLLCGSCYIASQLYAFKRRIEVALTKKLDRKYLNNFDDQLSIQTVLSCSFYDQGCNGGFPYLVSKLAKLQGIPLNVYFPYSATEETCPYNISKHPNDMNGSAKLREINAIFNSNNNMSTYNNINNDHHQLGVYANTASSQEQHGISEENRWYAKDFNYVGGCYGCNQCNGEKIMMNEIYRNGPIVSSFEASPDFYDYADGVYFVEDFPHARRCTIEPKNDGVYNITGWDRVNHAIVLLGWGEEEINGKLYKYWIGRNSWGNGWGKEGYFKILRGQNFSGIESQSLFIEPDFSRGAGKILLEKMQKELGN

| SMILES | % Inhibition @ 10 uM |
| --- | --- |
| COc1cc(/C=C2/SC(N3CCC(C)CC3)=NC2=O)cc(OC)c1OC | -1.33% |
| Cc1ccc(CNC(=O)C2CCCN(c3nnc(C)c4c(C)n(-c5ccc(Cl)cc5)nc34)C2)o1 (centres unmarked) | 4.05% |
| COc1ccc(N/C=C(\C#N)C(=O)NC(=O)Cc2ccccc2)cc1 | -4.75% |
| Cc1oc2ncnc(N3CCOCC3)c2c1C(=O)O | -5.76% |
| FC(F)(F)c1cc(-c2ccco2)nc(N2CCOCC2)n1 | 6.89% |
| Cc1ccc(-n2cc(-c3ccccc3)c3c(NCCCO)ncnc32)cc1 | -0.247% |
| CCN(CC)C(=O)C1CCCN(Cc2ccc(OC)c(O)c2)C1 (centres unmarked) | -4.35% |
| Cn1nc(C(=O)NCc2cccnc2)c2ccccc2c1=O | 3.93% |
| N#C/C(=C\c1ccc(Br)cc1)c1nc(-c2ccc(F)cc2)cs1 | -2.28% |
| Cc1ccc(C(=O)c2oc3ccccc3c2NC(=O)CC(C)C)cc1 | 7.02% |
| Cc1ccccc1NC(=O)C1CCC(=O)N1 (centres unmarked) | 0.132% |
| C=CCn1c(SCC(=O)Nc2cccc(OC)c2)nc2scc(-c3ccc(C)o3)c2c1=O | 0.851% |
| Cc1ccc(CCNC(=O)CSc2nnc(C)c3c(C)n(-c4ccccc4)nc23)cc1 | -7.67% |
| Cc1ccccc1-c1nc(CS(=O)(=O)CC(=O)NC2CCCC2)c(C)o1 | -0.138% |
| Cc1ccc(C(=O)c2cn(Cc3ccccc3F)c3nc(C)ccc3c2=O)cc1 | -2.5% |
| CCC(NC(=O)C1CCN(c2ccc(C(C)=O)cc2)CC1)C(=O)c1nc2ccccc2o1 (centres unmarked) | -6.56% |
| COc1ccccc1N(Cc1cc2ccc(C)cc2nc1O)C(=O)c1cccnc1 | -0.173% |
| O=c1/c(=C/c2ccc(OCc3ccccc3)cc2)sc2nc(-c3cccnc3)nn12 | 1.96% |
| CCOc1ccc(/C=C2/N=C(c3cncc(Br)c3)OC2=O)cc1 | 3.1% |
| COc1ccc(C(=O)NC2CC(C)(C)NC(C)(C)C2)cc1OC | 13.6% |
| O=C(C1CCCN(S(=O)(=O)c2cccc3nonc23)C1)N1CCC(Cc2ccccc2)CC1 (centres unmarked) | -0.0508% |
| CCOc1cc(C2CC(=O)Nc3c2c(=O)nc(SCc2ccccc2Cl)n3C)ccc1O (centres unmarked) | 2.25% |
| CCN1C(=O)C(=CNc2ccc3[nH]ncc3c2)C(=O)N(CC)C1=O | 0.751% |
| CCc1ccc2nc(N(CCN(C)C)C(=O)CCS(=O)(=O)c3ccccc3)sc2c1 | -0.613% |
| CCOC(=O)c1cnc2ccc(C(=O)OC)cc2c1NCc1cccnc1 | -2.14% |

| SMILES | % Inhibition @ 10 uM |
| --- | --- |
| Cc1ccc(NC(=O)CCS(=O)(=O)c2ccc(Br)cc2)nc1 | 1.2% |
| CC1=C(C#N)C(c2cccnc2)C2=C(O)CCCC2=N1 (centres unmarked) | -4.8% |
| CCOC(=O)C1=C(C)N(C)C(=S)NC1c1ccccc1 (centres unmarked) | -6.89% |
| CCOc1cc(C(=O)Nc2noc3ccccc23)cc(OCC)c1OCC | 37.8% |
| OC1(c2ccc(Br)cc2)CCN(CC2CC3C=CC2C3)CC1 (centres unmarked) | 3.48% |
| O=c1[nH]c(=O)c2sc3nc4c(cc3c2[nH]1)CCCCC4 | -6.05% |
| CCCCNC(=O)c1ccccc1NC(=O)c1ccco1 | 14.8% |
| COc1ccc(C2CC(=O)Nc3c2cc(Br)c2ccccc32)c(OC)c1OC (centres unmarked) | -0.478% |
| CC(=O)N1CCC(NCCC(c2ccccc2)c2ccccc2)CC1 | 1.57% |
| CC(=O)NCCNC(=O)c1cc2ccccc2cc1O | -2.84% |
| COC(C(=O)NCc1ccc(C)cc1)c1ccccc1 (centres unmarked) | -2.88% and -1.88% |
| COc1ccc(CN2C(=O)c3cccnc3C2=O)cc1S(=O)(=O)N1CC=C(c2ccccc2)CC1 | 0.882% |
| Cc1ccc(C(=O)Nc2nc(-c3ccccc3)cs2)cc1 | 4.16% |
| CCCCN(C)C(=O)c1cc(-c2ccc(F)cc2)[nH]n1 | 2.96% |
| Cc1ccc(-n2c(C)cc(C(=O)C(=O)NCc3ccco3)c2C)cc1C | -2.84% |
| Fc1ccc(-c2nnc(-c3ccccc3-c3ccc(C(F)(F)F)cc3)o2)cc1 | -6.35% |
| COC(=O)c1ccc(-c2ccco2)n1CC(=O)NC1CCCC1 | -9.33% |
| Cc1coc2c1c(C)cc1oc(=O)c(CC(=O)NCc3ccco3)c(C)c12 | -0.808% |
| CCCOc1cccc(C2c3c(oc4ccccc4c3=O)C(=O)N2c2nnc(C(C)C)s2)c1 (centres unmarked) | -6.23% |
| CCCCOc1ccc(S(=O)(=O)NCc2csc(-c3ccccc3)n2)cc1 | -0.72% |
| Fc1ccccc1OCCCCCCN1CCCC1 | -0.833% |
| COc1ccc(-c2nnc(NC(=O)C(F)(F)F)s2)cc1OC | 1.58% |
| O=C1CCCN1CCSC(=S)N1CCCCCC1 | -3.99% |
| Cc1cc(NC(=O)CC(C)n2nc(C)cc2C)c2ccccc2n1 (centres unmarked) | -1.93% |
| Clc1cccc(C2NCCc3c2[nH]c2ccccc32)c1Cl (centres unmarked) | 4.89% |
